According to PubChem BioAssay AID504332 (National Center for Advancing Translational Sciences (NCATS), 2011):
Screen size: about 350,000 compounds; about 31,000 (8.9%) were called active. This list was built around the results that the source calls inconclusive (neither active nor inactive); the mix of calls is not that of the screen. Calls follow the shape of the dose curve; as a rule, active = well fitted inhibition curve with a large enough effect; inconclusive = small, poorly fitted or top-dose-only effect; inactive = no such curve, though single readings can be large or run the other way. A potency beside an inconclusive call is a rough fit, not a confirmed value.

Target: Histone-lysine N-methyltransferase EHMT2 (Homo sapiens) (UniProt Q96KQ7)
UniProt Q96KQ7, sequence (Q96KQ7 whole entry, looked up): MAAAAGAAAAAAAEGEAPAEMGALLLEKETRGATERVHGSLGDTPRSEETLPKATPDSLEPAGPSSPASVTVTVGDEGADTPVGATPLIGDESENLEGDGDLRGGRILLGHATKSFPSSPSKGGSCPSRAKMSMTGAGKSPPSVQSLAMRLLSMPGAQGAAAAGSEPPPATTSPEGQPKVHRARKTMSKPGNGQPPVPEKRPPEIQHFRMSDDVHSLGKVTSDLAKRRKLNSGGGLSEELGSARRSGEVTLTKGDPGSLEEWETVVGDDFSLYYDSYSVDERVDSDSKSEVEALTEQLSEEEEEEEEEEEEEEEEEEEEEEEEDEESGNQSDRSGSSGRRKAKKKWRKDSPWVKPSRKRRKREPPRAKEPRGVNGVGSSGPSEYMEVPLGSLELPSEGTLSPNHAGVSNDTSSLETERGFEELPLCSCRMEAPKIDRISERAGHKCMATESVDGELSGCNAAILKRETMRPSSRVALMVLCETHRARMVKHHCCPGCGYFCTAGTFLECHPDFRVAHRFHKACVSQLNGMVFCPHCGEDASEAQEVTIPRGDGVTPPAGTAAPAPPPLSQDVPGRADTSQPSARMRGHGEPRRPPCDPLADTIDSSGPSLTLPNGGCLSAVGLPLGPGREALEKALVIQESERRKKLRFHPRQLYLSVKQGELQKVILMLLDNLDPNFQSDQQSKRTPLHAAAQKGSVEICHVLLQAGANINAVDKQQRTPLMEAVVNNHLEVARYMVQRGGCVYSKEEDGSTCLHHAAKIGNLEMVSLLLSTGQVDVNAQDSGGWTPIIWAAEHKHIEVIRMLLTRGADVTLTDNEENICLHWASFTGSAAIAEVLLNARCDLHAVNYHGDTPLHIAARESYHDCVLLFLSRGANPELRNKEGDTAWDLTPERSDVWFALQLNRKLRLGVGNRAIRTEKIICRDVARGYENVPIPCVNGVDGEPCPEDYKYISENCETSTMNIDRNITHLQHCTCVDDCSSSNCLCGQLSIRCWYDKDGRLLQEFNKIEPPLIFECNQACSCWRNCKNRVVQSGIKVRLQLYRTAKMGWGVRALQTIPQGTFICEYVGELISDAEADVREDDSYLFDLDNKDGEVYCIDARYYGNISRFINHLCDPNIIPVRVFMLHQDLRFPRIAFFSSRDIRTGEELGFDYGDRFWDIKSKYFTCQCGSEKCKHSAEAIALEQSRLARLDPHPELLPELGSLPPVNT
Assay: qHTS Assay for Inhibitors of Histone Lysine Methyltransferase G9a; also: nearly all actives have a fitted effect of over 75% in size
Settings: G9a H3K9 monomethylation, AlphaScreen, 2 h; activity, negative = inhibition: at 59 µM (top of the series) unless noted
Outline: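 Using a bead-based AlphaScreen, monomethylated H3K9 product from 2 h room-temperature reactions (G9a 20 nM, peptide 500 nM, SAM 20 uM) was detected with 0.5 ug/mL rabbit anti-H3K9me1 antibody.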
% is scaled to controls: 0 for no effect and ±100 for the full control effect; potency is read from the fitted curve at half-maximal effect; tags tell the direction and shape of the fitted curve.

Compound | Potency | activity, negative = inhibition
COc1ccccc1NC(=O)C(C)Nc1ccc(C)c(Cl)c1 (stereo unspecified) | inconclusive: 35.5 µM [inhibitor, partial curve, poor fit] | –
Cc1ccc(S(=O)(=O)n2cnc3ccccc32)cc1 | inconclusive: 35.5 µM [inhibitor, single point] | –
COC(=O)Nc1sc2c(c1C(=O)NC1CC1)CCCCCC2 | inconclusive: 25.1 µM [inhibitor, partial curve, poor fit] | –
CCCCc1nc2sc3c(SCC(=O)NCc4ccco4)ncnc3c2c2c1CCC2 | – | inactive: 22.5% [at 0.501 µM]
Cc1ccccc1OCCSCc1nc2ccccc2[nH]1 | – | inactive: -7.99%
CCOCCCn1c(=S)[nH]c2cc(C(=O)N3CCN(C)CC3)ccc2c1=O | inconclusive: 39.8 µM [inhibitor, single point] | –
COc1ccc2c(c1)-c1nc(NC(=O)c3ccco3)sc1CC2 | active: 25.1 µM | –
COc1cccc(Nc2cc(N3CCOCC3)c3nonc3c2[N+](=O)[O-])c1 | inconclusive: 44.7 µM [inhibitor, partial curve, poor fit] | –
C[C@@H]1NC(=O)[C@H](CCC(N)=O)NC(=O)c2cc([N+](=O)[O-])cc(I)c2NCCC[C@@H](C(N)=O)NC1=O | active: 50.1 µM | –
O=C(CN1C(=O)c2ccccc2C1=O)NC1CCC(O)CC1 (stereo unspecified) | – | inactive: 5.8%
C=C(C)C(=O)Nc1cccc(C2=NOC3(C2)C[C@H](C(N)=O)N(C(=O)c2ccccc2)C3)c1 (stereo partly specified) | inconclusive: 11.2 µM [inhibitor, single point] | –
O=C(c1csc2c1CCCC2)N1CCN(c2ccc(F)cc2)CC1 | inconclusive: 39.8 µM [inhibitor, single point] | –
COc1ccc(NC(=O)C2=C(C)Nc3nc(SCc4ccccc4C)nn3C2c2ccc(Br)cc2)cc1 (stereo unspecified) | – | inactive: -35%
OCC1CCCCN1CCNCc1cn[nH]c1-c1cccc2ccccc12 (stereo unspecified) | – | inactive: -50.3% [at 102 µM]
COc1ccc(-c2cc(C(F)(F)F)c(C#N)c(SCC(=O)Nc3ccc(C)cc3)n2)cc1 | inconclusive: 14.1 µM [inhibitor, partial curve, poor fit] | –
O=C(CSc1nc(O)cc(=O)[nH]1)N1c2ccccc2Sc2ccccc21 | inconclusive: 79.4 µM [inhibitor, single point] | –
COc1cccc(CC(=O)Nc2cc(S(=O)(=O)N3CCOCC3)ccc2OC)c1 | inconclusive: 79.4 µM [inhibitor, partial curve, poor fit] | –
O=C(NC1CCN(C(=O)N2c3ccccc3Sc3ccccc32)CC1)c1ccccc1F | inconclusive: 50.1 µM [inhibitor, partial curve, poor fit] | –
CCS(=O)(=O)c1ccc2c(c1)N(S(=O)(=O)c1ccc(OC)cc1)CC(C(=O)O)O2 (stereo unspecified) | – | inactive: 65.3%
Cc1nc(SCC(=O)Nc2cccnc2Cl)nc(C)c1C | active: 39.8 µM | –
CCOC(=O)Cc1c(C)nc(SC)[nH]c1=O | – | inactive: 0.421% [at 102 µM]
Cc1ccc(NS(=O)(=O)c2cccc(C(=O)OCC(=O)NCc3ccco3)c2)cc1 | inconclusive: 39.8 µM [inhibitor, single point] | –

Compound | Potency | activity, negative = inhibition
COC(=O)c1ccc(-c2cc(C(=O)O)c3cc4c(cc3n2)OCCO4)cc1 | inconclusive: 20 µM [inhibitor, single point] | –
C#CCOCCOCCOCCNc1nc(N2CCN(C(=O)[C@H](CCC(=O)O)n3cc(C(N)CO)nn3)CC2)nc(N2CCN(C(=O)[C@H](CCC(=O)O)n3cc(C(N)CO)nn3)CC2)n1 (stereo partly specified) | inconclusive: 3.16 µM [inhibitor, single point] | –
CN(C)CCCN(C(=O)CCSc1ccccc1)c1nc2cc3c(cc2s1)OCO3 | inconclusive: 39.8 µM [inhibitor, partial curve, poor fit] | –
CC(C)CN1C(=O)C(=O)N(CC(=O)NC(C)CCc2ccccc2)C1=O (stereo unspecified) | inconclusive: 4.47 µM [inhibitor, partial curve, poor fit] | –
CCC1=NN(C(=O)c2ccccc2O)C(O)(c2ccccc2)C1 (stereo unspecified) | – | inactive: 3.37% [at 102 µM]
CCOc1ccc(N(CC(=O)NCc2ccco2)S(=O)(=O)c2ccc(OC)c(OC)c2)cc1 | inconclusive: 0.891 µM [inhibitor, partial curve, poor fit] | –
Cc1ccc(S(=O)(=O)N(C)C)cc1NC(=O)c1cc(S(=O)(=O)N2CCCCC2)ccc1N1CCOCC1 | inconclusive: 79.4 µM [inhibitor, single point] | –
CCOc1ccc(Cc2nnc(SCC(=O)Nc3ccc(OC)cc3)n(N)c2=O)cc1 | – | inactive: 3.65% [at 102 µM]
CCN1C(=O)S/C(=C/c2ccc(Sc3nc4ccccc4[nH]3)o2)C1=O | active: 11.2 µM | –
O=C(Nc1ccc(-c2nc3ccccc3c(=O)o2)cc1)c1ccco1 | – | inactive: 24.3%
CCOc1ccc(/C=C(\C#N)c2nc(-c3cc4ccccc4oc3=O)cs2)c(OCC)c1 | inconclusive: 22.4 µM [inhibitor, partial curve, poor fit] | –
CCN1CCN(C(c2ccc(OC)cc2)c2c(O)cc(C)n(CCOC)c2=O)CC1 (stereo unspecified) | inconclusive: 35.5 µM [inhibitor, single point] | –
Cc1ccc(S(=O)(=O)c2nc(-c3ccco3)oc2SCC(=O)NCC2CCCO2)cc1 (stereo unspecified) | – | inconclusive: -90.4% [inhibitor]
COc1ccccc1Nc1ccc2nonc2c1[N+](=O)[O-] | inconclusive: 14.1 µM [inhibitor, partial curve, poor fit] | –
COC(=O)c1ccc(N2CCN(S(=O)(=O)c3ccccc3)CC2)c([N+](=O)[O-])c1 | – | inconclusive: -69.1% [inhibitor]
COc1ccc(C2C=C(c3ccccc3)Nc3nc(NC(=O)c4ccc(C)cc4)nn32)cc1 (stereo unspecified) | – | inactive: -8.57%
Cc1ccc2c(c1)N(S(=O)(=O)c1ccc(F)cc1)C(C(C)(C)C)CO2 (stereo unspecified) | – | inconclusive: -98.1% [inhibitor]
O=C(Cn1cc(C(F)(F)F)ccc1=O)N/N=C/c1ccccc1O | – | inactive: 20.8% [at 102 µM]
O=C1C(=Nc2cccc(Cl)c2)CC(c2ccc(Cl)cc2)N1c1cccc(Cl)c1 (stereo unspecified) | – | inactive: -48.4% [at 102 µM]
Clc1ccc(C2CC(c3cccs3)n3ncnc3N2)cc1Cl (stereo unspecified) | inconclusive: 28.2 µM [inhibitor, single point] | –
COc1ccc(OC)c(C2CC(=O)N3CN(c4ccccc4F)CSC3=C2C#N)c1 (stereo unspecified) | active: 2.24 µM | –
Cc1ccc(C(=O)CCc2ccc(N)cc2)cc1 | inconclusive: 100 µM [inhibitor, single point] | –

Compound | Potency | activity, negative = inhibition
Cn1cc(CN2CCN(c3cnccn3)CC2)c(-c2cccc(Cl)c2)n1 | inconclusive: 39.8 µM [inhibitor, partial curve] | –
Cc1cc(O)c(-c2cc(C(=O)Nc3cccnc3)[nH]n2)cc1C | – | inactive: 4.88% [at 102 µM]
O=C(NCCc1cn2ccccc2n1)c1ccc(Br)o1 | inconclusive: 79.4 µM [inhibitor, partial curve, poor fit] | –
O=C(O)c1c2c(nc3ccccc13)/C(=C/c1ccc(OC(F)F)cc1)CCC2 | inconclusive: 79.4 µM [inhibitor, single point] | –
COc1ccc(-c2cc(C(=O)N3CCN(c4ncccn4)CC3)c3ccccc3n2)c(OC)c1 | inconclusive: 20 µM [inhibitor, single point] | –
COc1ccc(C(C)=O)c2c(O)cccc12 | inconclusive: 89.1 µM [inhibitor, single point] | –
C=CCNC(=O)c1cn(CC)c2cc(N3CCN(C(=O)c4ccco4)CC3)c(F)cc2c1=O | inconclusive: 79.4 µM [inhibitor, single point] | –
Cc1ccc(NC(=O)Nc2nnc(N(C)Cc3ccccc3)s2)cc1 | – | inactive: -21.9%
Cc1cc(NS(=O)(=O)c2ccc(NC(=O)COc3ccc(Cl)cc3)cc2)nc(C)n1 | inconclusive: 0.631 µM [inhibitor, full curve, poor fit] | –
CC1CCCN(S(=O)(=O)c2ccc(NC(=O)CCN3C(=O)c4ccccc4C3=O)cc2)C1 (stereo unspecified) | – | inactive: -1.55% [at 102 µM]
COc1ccc(C2C(C#N)=C(N)OC3=C2C(=O)CCC3)c(OC)c1OC (stereo unspecified) | inconclusive: 3.16 µM [inhibitor, single point] | –
Cc1ccc(C(=O)NC(=S)NNC(=O)c2ccccc2O)cc1 | inconclusive: 89.1 µM [inhibitor, single point] | –
O=C(OC1CCOC1=O)C1CCN(S(=O)(=O)c2c(Cl)cccc2Cl)CC1 (stereo unspecified) | inconclusive: 79.4 µM [inhibitor, single point] | –
CC1CCCC(n2c(=S)[nH]c3ccccc3c2=O)C1C (stereo unspecified) | – | inactive: 62%
CC(C)N1C/C(=C/c2ccsc2)C(=O)/C(=C/c2ccsc2)C1 | inconclusive: 39.8 µM [inhibitor, single point] | –
Cc1onc(-c2ccccc2)c1C(=O)N/N=C/c1cc2c(cc1Br)OCO2 | inconclusive: 89.1 µM [inhibitor, single point] | –
COc1ccc2[nH]cc(C(O)CN3CCN(c4ccccc4F)CC3)c2c1 (stereo unspecified) | inconclusive: 5.01 µM [inhibitor, full curve, poor fit] | –
CCN(CC)c1ccc(NC(=O)C(Cc2ccccc2)NS(=O)(=O)c2ccc(Br)s2)c(C)c1 (stereo unspecified) | inconclusive: 3.55 µM [inhibitor, partial curve, poor fit] | –
O=C(c1ccc(Cl)c(S(=O)(=O)N2CCOCC2)c1)N(Cc1ccco1)Cc1cccs1 | inconclusive: 79.4 µM [inhibitor, single point] | –
Cc1nc(N2CCCC2)c2c(C(=O)Nc3cccc(C)c3C)c(C)oc2n1 | – | inactive: -5.46%
O=C(Nc1cccc(Cl)c1)c1c(NC(=O)C(F)(F)F)sc2c1CCCC2 | active: 3.98 µM | –
Cc1nc(NC(=O)c2ccc(Br)o2)sc1C | inconclusive: 28.2 µM [inhibitor, single point] | –
